Test results published in the supplement of paper PMC8728848.
Some of the results follow.

Tests used:
Experiment in all cases: glycan array binding signal (z-score within array); higher = stronger binding
Settings in all cases: glycan notation: IUPAC condensed, linker removed
[1] = molecular target: Fuc(a1-2)Gal(b1-4)[Fuc(a1-3)]GlcNAc
Outline: (§1)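 The binding signal is a Z-score computed within each array. Data were drawn from 3228 arrays in the Consortium for Functional Glycomics database, restricted to those with a known protein sequence. Scores were averaged over arrays of the same protein sequence at different concentrations or buffers, and over linkers, and negative values can be taken as non-binding.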

[2] = molecular target: Fuc(a1-2)Gal(b1-4)[Fuc(a1-3)]GlcNAc(b1-2)Man(a1-3)[Fuc(a1-2)Gal(b1-4)[Fuc(a1-3)]GlcNAc(b1-2)Man(a1-6)]Man(b1-4)GlcNAc(b1-4)[Fuc(a1-6)]GlcNAc
Outline: as §1

[3] = molecular target: Fuc(a1-2)Gal(b1-4)[Fuc(a1-3)]GlcNAc(b1-2)[Fuc(a1-2)Gal(b1-4)[Fuc(a1-3)]GlcNAc(b1-4)]Man(a1-3)[Fuc(a1-2)Gal(b1-4)[Fuc(a1-3)]GlcNAc(b1-2)Man(a1-6)]Man(b1-4)GlcNAc(b1-4)GlcNAc
Outline: as §1

[4] = molecular target: Fuc(a1-2)Gal(b1-4)[Fuc(a1-3)]GlcNAc(b1-3)Gal(b1-4)[Fuc(a1-3)]GlcNAc
Outline: as §1

[5] = molecular target: Fuc(a1-2)Gal(b1-4)[Fuc(a1-3)]GlcNAc(b1-3)Gal(b1-4)[Fuc(a1-3)]GlcNAc(b1-3)Gal(b1-4)[Fuc(a1-3)]GlcNAc
Outline: as §1

[6] = molecular target: Fuc(a1-2)Gal(b1-4)[Fuc(a1-3)]GlcNAc(b1-3)GalNAc
Outline: as §1

[7] = molecular target: Fuc(a1-2)Gal(b1-4)[Fuc(a1-3)]GlcNAc(b1-3)[Neu5Ac(a2-6)Gal(b1-4)GlcNAc(b1-6)]Gal(b1-4)Glc
Outline: as §1

[8] = molecular target: Fuc(a1-2)Gal3S(b1-4)GlcNAc
Outline: as §1

[9] = molecular target: Fuc(a1-2)Gal6S(b1-3)GlcNAc
Outline: as §1

[10] = molecular target: Fuc(a1-2)Gal6S(b1-3)GlcNAc6S
Outline: as §1

Fuc(a1-2)Gal6S(b1-4)Glc = molecular target: Fuc(a1-2)Gal6S(b1-4)Glc
Outline: as §1

[11] = molecular target: Fuc(a1-2)Gal6S(b1-4)Glc6S
Outline: as §1

Fuc(a1-2)[Gal(a1-3)]Gal = molecular target: Fuc(a1-2)[Gal(a1-3)]Gal
Outline: as §1

[12] = molecular target: Fuc(a1-2)[Gal(a1-3)]Gal(b1-3)GalNAc
Outline: as §1

[13] = molecular target: Fuc(a1-2)[Gal(a1-3)]Gal(b1-3)GalNAc(b1-3)Gal(a1-4)Gal(b1-4)Glc
Outline: as §1

[14] = molecular target: Fuc(a1-2)[Gal(a1-3)]Gal(b1-3)GlcNAc
Outline: as §1

[15] = molecular target: Fuc(a1-2)[Gal(a1-3)]Gal(b1-3)GlcNAc(b1-2)Man(a1-3)[Fuc(a1-2)[Gal(a1-3)]Gal(b1-3)GlcNAc(b1-2)Man(a1-6)]Man(b1-4)GlcNAc(b1-4)GlcNAc
Outline: as §1

[16] = molecular target: Fuc(a1-2)[Gal(a1-3)]Gal(b1-3)GlcNAc(b1-2)Man(a1-3)[Fuc(a1-2)[Gal(a1-3)]Gal(b1-3)GlcNAc(b1-2)Man(a1-6)]Man(b1-4)GlcNAc(b1-4)[Fuc(a1-6)]GlcNAc
Outline: as §1

[17] = molecular target: Fuc(a1-2)[Gal(a1-3)]Gal(b1-3)GlcNAc(b1-3)GalNAc
Outline: as §1

[18] = molecular target: Fuc(a1-2)[Gal(a1-3)]Gal(b1-3)GlcNAc(b1-6)GalNAc
Outline: as §1

[19] = molecular target: Fuc(a1-2)[Gal(a1-3)]Gal(b1-4)Glc
Outline: as §1

[20] = molecular target: Fuc(a1-2)[Gal(a1-3)]Gal(b1-4)GlcNAc
Outline: as §1

[21] = molecular target: Fuc(a1-2)[Gal(a1-3)]Gal(b1-4)GlcNAc(b1-2)Man
Outline: as §1

[22] = molecular target: Fuc(a1-2)[Gal(a1-3)]Gal(b1-4)GlcNAc(b1-2)Man(a1-3)[Fuc(a1-2)[Gal(a1-3)]Gal(b1-4)GlcNAc(b1-2)Man(a1-6)]Man(b1-4)GlcNAc(b1-4)GlcNAc
Outline: as §1

[23] = molecular target: Fuc(a1-2)[Gal(a1-3)]Gal(b1-4)GlcNAc(b1-2)Man(a1-3)[Fuc(a1-2)[Gal(a1-3)]Gal(b1-4)GlcNAc(b1-2)Man(a1-6)]Man(b1-4)GlcNAc(b1-4)[Fuc(a1-6)]GlcNAc
Outline: as §1

[24] = molecular target: Fuc(a1-2)[Gal(a1-3)]Gal(b1-4)GlcNAc(b1-3)GalNAc
Outline: as §1

[25] = molecular target: Fuc(a1-2)[Gal(a1-3)]Gal(b1-4)GlcNAc(b1-3)[Fuc(a1-2)[Gal(a1-3)]Gal(b1-4)GlcNAc(b1-6)]GalNAc
Outline: as §1

[26] = molecular target: Fuc(a1-2)[Gal(a1-3)]Gal(b1-4)GlcNAc(b1-6)GalNAc
Outline: as §1

[27] = molecular target: Fuc(a1-2)[Gal(a1-3)]Gal(b1-4)[Fuc(a1-3)]Glc
Outline: as §1

[28] = molecular target: Fuc(a1-2)[Gal(a1-3)]Gal(b1-4)[Fuc(a1-3)]GlcNAc
Outline: as §1

[29] = molecular target: Fuc(a1-2)[Gal(a1-3)]Gal(b1-4)[Fuc(a1-3)]GlcNAc(b1-3)GalNAc
Outline: as §1

[30] = molecular target: Fuc(a1-2)[Gal(a1-4)]Gal(b1-4)GlcNAc
Outline: as §1

[31] = molecular target: Fuc(a1-2)[GalNAc(a1-3)]Gal
Outline: as §1

[32] = molecular target: Fuc(a1-2)[GalNAc(a1-3)]Gal(b1-3)GalNAc(a1-3)[Fuc(a1-2)]Gal(b1-4)GlcNAc
Outline: as §1

[33] = molecular target: Fuc(a1-2)[GalNAc(a1-3)]Gal(b1-3)GalNAc(b1-3)Gal(a1-4)Gal(b1-4)Glc
Outline: as §1

[34] = molecular target: Fuc(a1-2)[GalNAc(a1-3)]Gal(b1-3)GlcNAc
Outline: as §1

[35] = molecular target: Fuc(a1-2)[GalNAc(a1-3)]Gal(b1-3)GlcNAc(b1-2)Man(a1-3)[Fuc(a1-2)[GalNAc(a1-3)]Gal(b1-3)GlcNAc(b1-2)Man(a1-6)]Man(b1-4)GlcNAc(b1-4)GlcNAc
Outline: as §1

[36] = molecular target: Fuc(a1-2)[GalNAc(a1-3)]Gal(b1-3)GlcNAc(b1-2)Man(a1-3)[Fuc(a1-2)[GalNAc(a1-3)]Gal(b1-3)GlcNAc(b1-2)Man(a1-6)]Man(b1-4)GlcNAc(b1-4)[Fuc(a1-6)]GlcNAc
Outline: as §1

B1: HML-Native (Hypnea musciformis), P84871 (protein)
chain: QKFCTLDIAPVCCQIVIGGGMYTAGNACMCEGFVSGVGRCENPKECPCTREAQIPSCCSSRWGLVSVTGKCACDCLGGTVAFPEPCPSPY
In the case of B1, the “glycan array binding signal (z-score)” value [1] is reported as -0.079, the “glycan array binding signal (z-score)” value [2] is reported as 3.87 and the “glycan array binding signal (z-score)” value [3] is reported as -0.059. For the same binder, the “glycan array binding signal (z-score)” value [4] was -0.168, the “glycan array binding signal (z-score)” value [5] was -0.277 and the “glycan array binding signal (z-score)” value [6] was -0.185. The “glycan array binding signal (z-score)” value [7] was -0.222, the “glycan array binding signal (z-score)” value [8] was -0.202 and the “glycan array binding signal (z-score)” value [9] was -0.268. The “glycan array binding signal (z-score)” value [10] was -0.206, the “glycan array binding signal (z-score)” value (Fuc(a1-2)Gal6S(b1-4)Glc) was -0.213 and the “glycan array binding signal (z-score)” value [11] was -0.204. The “glycan array binding signal (z-score)” value (Fuc(a1-2)[Gal(a1-3)]Gal) was -0.217, the “glycan array binding signal (z-score)” value [12] was -0.241 and the “glycan array binding signal (z-score)” value [13] was -0.275. For the same binder, the “glycan array binding signal (z-score)” value [14] was -0.211, the “glycan array binding signal (z-score)” value [15] was -0.101 and the “glycan array binding signal (z-score)” value [16] was 3.02. The “glycan array binding signal (z-score)” value [17] was -0.281, the “glycan array binding signal (z-score)” value [18] was -0.319 and the “glycan array binding signal (z-score)” value [19] was -0.106. For the same binder, the “glycan array binding signal (z-score)” value [20] was -0.348, the “glycan array binding signal (z-score)” value [21] was -0.154 and the “glycan array binding signal (z-score)” value [22] was 0.081. For the same binder, the “glycan array binding signal (z-score)” value [23] was 1.64, the “glycan array binding signal (z-score)” value [24] was -0.271 and the “glycan array binding signal (z-score)” value [25] was -0.238. For the same binder, the “glycan array binding signal (z-score)” value [26] was -0.289, the “glycan array binding signal (z-score)” value [27] was -0.283 and the “glycan array binding signal (z-score)” value [28] was -0.17. For the same binder, the “glycan array binding signal (z-score)” value [29] was -0.308, the “glycan array binding signal (z-score)” value [30] was -0.257 and the “glycan array binding signal (z-score)” value [31] was -0.275. The “glycan array binding signal (z-score)” value [32] was -0.327, the “glycan array binding signal (z-score)” value [33] was -0.448 and the “glycan array binding signal (z-score)” value [34] was -0.249. For the same binder, the “glycan array binding signal (z-score)” value [35] was -0.093 and the “glycan array binding signal (z-score)” value [36] was 1.61.
